Measured values as given in the supplement of paper PMC7125110.
± gives the standard error. Variants at the background level are over-represented here.

B1: glmS ribozyme (parent)
chain: AUAAAAGCGCCAGAACUACAGAAAUGUAGUUGACGAGGAGGAGGUUUAUCGAAUUUUCGGCGGAUGCCUCCAAA

Assays:
Settings in all cases: with glucosamine-6-phosphate
glucosamine-6-phosphate [1] = variants of: B1; test: self-cleavage kobs at 640 uM GlcN6P; higher = faster cleavage; RNA array
In short: (§1)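 On sequenced MiSeq chips, barcoded ribozyme variants were made in situ by E. coli RNA polymerase and followed at 37 °C through a hybridised Cy3 probe. Glucosamine-6-phosphate was flowed in at 40 μM to 10 mM in HEPES/KCl/Mg(OAc)2 buffer. Exponential fits to normalised per-tile medians gave kobs, and weighted Michaelis–Menten fits gave kcat and KM.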

glucosamine-6-phosphate [2] = variants of: B1; test: self-cleavage kobs at 160 uM GlcN6P; higher = faster cleavage; RNA array
In short: as §1

glucosamine-6-phosphate [3] = variants of: B1; test: self-cleavage kobs at 2500 uM GlcN6P; higher = faster cleavage; RNA array
In short: as §1

glucosamine-6-phosphate [4] = variants of: B1; test: self-cleavage kobs at 10000 uM GlcN6P; higher = faster cleavage; RNA array
In short: as §1

Variant | self-cleavage kobs at 640 uM GlcN6P (glucosamine-6-phosphate [1]) | self-cleavage kobs at 160 uM GlcN6P (glucosamine-6-phosphate [2]) | self-cleavage kobs at 2500 uM GlcN6P (glucosamine-6-phosphate [3]) | self-cleavage kobs at 10000 uM GlcN6P (glucosamine-6-phosphate [4])
AUAAAAGCGCCAGAAUUACAGAAAUGUAGUUGACGCGGAUGAGGUUUAUCGAAUUUUCGGCAAAUGCCUCCAAA [C16U A36C G40U G62A G63A] | < 1e-05 s⁻¹ |  |  | 
AUAAAAGCGCCAGAACUACAGAAAUGUACUUGACGAGGAGGAGGUUUGUCGAAUUUUCCGCGGAUGCCUCCAAA [G29C A48G G59C] | < 1e-05 s⁻¹ | < 1e-05 s⁻¹ | < 1e-05 s⁻¹ | < 1e-05 s⁻¹
AUAAAAGCGCCAGAACUACAGAAAUGUACUUGACGAGGAGGAGGUUUAUCGAAUUUUAGGCGGAGGCCUCCAAA [G29C C58A U65G] | < 1e-05 s⁻¹ |  |  | 
AUAAAAGCGCCAGAAGUACAGAAAUGUAGUUGACGAGGAGGAGGUUUAUCGACUUUUCAGCGGAUGCCUCCAAA [C16G A53C G59A] | < 1e-05 s⁻¹ |  | < 1e-05 s⁻¹ | 
AUAAAAGCGCCAGAAUUACAGAAAUGUAGUUGACGAGGGGGAGGUUUAUCGAAUUUUCGGCGGAUACCUCCAAA [C16U A39G G66A] | 0.00662 ± 0.0015 s⁻¹ |  |  | 
AUAAAAGCGCCAGAAGUACAGAAAUGUAGUUGACGAGGAGGAGGUUUAUCGAAUUUUCGACGGAUGCCUCCAAA [C16G G60A] | < 1e-05 s⁻¹ | < 1e-05 s⁻¹ |  | 
AUAAAAGCGCCAGAACUACAGAAAUGUAAUUGCCGAGGAGGAGGUUUAUUGAAUUUUCGGCGGAUGCCUCCAAA [G29A A33C C50U] | < 1e-05 s⁻¹ |  |  | 
AUAAAAGCGCCAGAACUACAGAAAUGUAAUUGACGAGGAGGAGGUUUAUCGAAUUUUCGGCGGCAGCUUCCAAA [G29A A64C U65A C68U] | < 1e-05 s⁻¹ |  |  | 
AUAAAAGCGCCAGAAGUACAGAAAUGUAGUUGACGAGGAUGAGGUUUAGCGAAUUUUCGACGGAUGCCUUCAAA [C16G G40U U49G G60A C70U] | < 1e-05 s⁻¹ |  | < 1e-05 s⁻¹ | 
AUAAAAGCGCCAGAACUACAGAAAUGUACUUGACGAGGAGGAGGUUUCUCGAAUUUUCGGCUGAUGCCUCCAAA [G29C A48C G62U] | < 1e-05 s⁻¹ | < 1e-05 s⁻¹ | < 1e-05 s⁻¹ | 
AUAAAAGCGCCAGAACUACAGAAAUGUAAUUGACGAGGAGGAGGUUUAUCGAAUUUUCGGCGGAUGCCACCAAA [G29A U69A] | 7.98e-05 ± 2.2e-05 s⁻¹ |  | 3.9e-05 ± 9.8e-06 s⁻¹ | 
AUAAAAGCGCCAGAACUACAGAAAUGUAAUUGAUGAGGAGGAGGUUUAUCCAAUUUUCGGCGGAUGUCUCCAAA [G29A C34U G51C C67U] | < 1e-05 s⁻¹ | < 1e-05 s⁻¹ |  | 
AUAAAAGCGCCAGAAUUACAGAAAUGUAGUUGACGAGGACGAGGUUUACCAAAUUUUCGGCGGAUGCCUCCAAA [C16U G40C U49C G51A] | < 1e-05 s⁻¹ | < 1e-05 s⁻¹ | < 1e-05 s⁻¹ | 
AUAAAAGCGCCAGAAGUACAGAAAUGUAGUUGACGAGGAGAAGGUGUAUCGAAUUUUCGGCGGAUGCCUCCAAA [C16G G41A U46G] | < 1e-05 s⁻¹ |  |  | 
AUAAAAGCGCCAGAAGUACAGAAAUGUAGUUGACGAGGAGAAGGUUUAUCGAAUAUUCGGCGGAUGCCUCCAAA [C16G G41A U55A] | < 1e-05 s⁻¹ |  |  | 
AUAAAAGCGCCAGAAGUACAGAAAUGUAGUUGACGAGGACGAGGUUUAUCCAAUUUUCGGCGGAUGCCUGCAAA [C16G G40C G51C C70G] | < 1e-05 s⁻¹ |  |  | 
AUAAAAGCGCCAGAACUACAGAAAUGUAAUUGACGACGAGGAGGUUUAUCGACUUUUCGGCCGAUGCCUCCAAA [G29A G37C A53C G62C] | < 1e-05 s⁻¹ |  | < 1e-05 s⁻¹ | 
AUAAAAGCGCCAGAAGUACAGAAAUGUAGUUGACGAGGAGGAGGUUUAUCUAAUUCUCGGCGGAUGCCUUCAAA [C16G G51U U56C C70U] | < 1e-05 s⁻¹ | < 1e-05 s⁻¹ |  | 
AUAAAAGCGCCAGAACUACAGAAAUGUACUUGACGAGGAGGGUGUUUAUCCAAUUUUCGGCCGAUGCCUCCAAA [G29C A42G G43U G51C G62C] | < 1e-05 s⁻¹ |  |  | 
AUAAAAGCGCCAGAAUUACAGAAAUGUAGUUGACGAGGAGGAGGUUUAUCGAGCUUUCGGCGGAUGCCUCCAAA [C16U A53G U54C] | 0.00193 ± 0.00028 s⁻¹ | 0.000683 ± 0.00013 s⁻¹ | 0.00421 ± 0.00075 s⁻¹ | 
AUAAAAGCGCCAGAACUACAGAAAUGUAAUUGACGGGGAGGAGGUUUAUCGAAUUUUAGGCGGAUGCCUCCAAA [G29A A36G C58A] | < 1e-05 s⁻¹ | < 1e-05 s⁻¹ | < 1e-05 s⁻¹ | 

Variant | self-cleavage kobs at 640 uM GlcN6P (glucosamine-6-phosphate [1]) | self-cleavage kobs at 160 uM GlcN6P (glucosamine-6-phosphate [2]) | self-cleavage kobs at 2500 uM GlcN6P (glucosamine-6-phosphate [3]) | self-cleavage kobs at 10000 uM GlcN6P (glucosamine-6-phosphate [4])
AUAAAAGCGCCAGAACUACAGAAAUGUACUUGACGAGGAGGAGGUUUAUCGAAUUUUCGGCGGAUGACUCCAAA [G29C C67A] | 0.000128 ± 1.9e-05 s⁻¹ | 5.79e-05 ± 1.3e-05 s⁻¹ | 0.000163 ± 3.2e-05 s⁻¹ | 0.000363 ± 5.2e-05 s⁻¹
AUAAAAGCGCCAGAAUUACAUAAAUGUAGUUGACGAGAAGGAGGUUUAUCGACUUUUCGGCGGAUGCCUCCAAA [C16U G21U G38A A53C] | < 1e-05 s⁻¹ |  |  | 
AUAAAAGCGCCAGAACUACAGAAAUGUAAUUGACGAGGAGGAGGUUCAUCGAAUUUUCGGCGGAUGCCUCCAAA [G29A U47C] | 8.17e-05 ± 2.3e-05 s⁻¹ |  |  | 
AUAAAAGCGCCAGAAGUACAGAAAUGUAGUUGACGAGGAGGAGGUAUAUCGAAUUUUCGGCGGAUGCCUCCAAA [C16G U46A] | 9.94e-05 ± 2.2e-05 s⁻¹ | 4.2e-05 ± 2e-05 s⁻¹ | 0.000146 ± 2.2e-05 s⁻¹ | 0.000213 ± 4.4e-05 s⁻¹
AUAAAAGCGCCAGAAGUACAGAAAUGUAGUCGACGAGGAGGAGGUUUAUCGAAUUUUCGGUGGAUGUCUCCAAA [C16G U31C C61U C67U] | < 1e-05 s⁻¹ | < 1e-05 s⁻¹ |  | 
AUAAAAGCGCCAGAACUACAGAAAUGUAAUUGACGAGGAGGAGGUUUAUCGAAUUUUCGGCGGAUGCCUACAAA [G29A C70A] | 4.17e-05 ± 1.5e-05 s⁻¹ |  |  | 
AUAAAAGCGCCAGAAUUACAGAAAUGUAGUUGACGAGGAGGAGGUUUAUCCAAUUUUCGGCGGAUGCCUCCAAA [C16U G51C] | < 1e-05 s⁻¹ | < 1e-05 s⁻¹ | < 1e-05 s⁻¹ | 
AUAAAAGCGCCAGAAGUACAGAAAUGUACUUGUCGAGGAGGAGGUUUCUCGAAUUUUCGGCGGAUGCCUCCAAA [C16G G29C A33U A48C] | < 1e-05 s⁻¹ | < 1e-05 s⁻¹ |  | 
AUAAAAGCGCCAGAAGUACAGAAAUGUAGCUGACGAGGAGGAGGUUUAUUGAAUUUUCGGCGGAUGCCUCCAAA [C16G U30C C50U] | < 1e-05 s⁻¹ |  |  | 
AUAAAAGCGCCAGAACUCCAGAAAUGUAGUUGACGAGGAGGAGGUAUAUCGCAUUUUCGGUGGAUGUCUCCAAA [A18C U46A A52C C61U C67U] | < 1e-05 s⁻¹ |  | < 1e-05 s⁻¹ | < 1e-05 s⁻¹
AUAAAAGCGCCAGAACUACAGAAAUGUAAUUGACGAGGAGGAGGUUUAUCGAAUUUUCGGCGGAUUCCUCCAAA [G29A G66U] | 6.51e-05 ± 2e-05 s⁻¹ |  | 6.95e-05 ± 1.9e-05 s⁻¹ | 
AUAAAAGCGCCAGAAUUACAGAAAUGUAGUUGACGAGGAGGAGGUUUAUCGAAUUUUCGUCGGAUGCAUCCAAA [C16U G60U C68A] | < 1e-05 s⁻¹ |  |  | 
AUAAAAGCGCCAGAACUACAGAAAUGUAAUUGACGAGGAGGAGGUUGAUCGAUUUUUCGCCGGAUGCCUCCAAA [G29A U47G A53U G60C] | < 1e-05 s⁻¹ |  |  | 
AUAAAAGCGCCAGAACUACAGAAAUGUAAUUGACGAGGCGGAGGUUUAUGGAAUUUUCGGCGGAUGCCUCCAAA [G29A A39C C50G] | < 1e-05 s⁻¹ |  |  | 
AUAAAAGCGCCAGAAUUACAGAAAUGUAGUUGACGAGUGGGUGGUUUAUCGAAUUUUCGGCGGAUGUCUCCAAA [C16U G38U A39G A42U C67U] | < 1e-05 s⁻¹ | < 1e-05 s⁻¹ |  | 
AUAAAAGCGCCAGAAUUACAGAAAUGUAGUUGACGAGCAGGAGGUUUAUCGAAUUUUCGGCGGAUGCCUGCAAA [C16U G38C C70G] | < 1e-05 s⁻¹ |  | < 1e-05 s⁻¹ | 
AUAAAAGCGCCAGAACUACAUAAAUGUAGUUGACGAGGAGGAGGUUGAUCGAAUUUUCGGCGGAUGCCUCCAAA [G21U U47G] | 0.00247 ± 0.00049 s⁻¹ |  |  | 
AUAAAAGCGCCAGAAGUACAGAAAUGUAGCUGACGUGGAGGAGGGUUAUCGUAUUUUCGGCGGAUGCCUCCAAA [C16G U30C A36U U45G A52U] | < 1e-05 s⁻¹ |  |  | 
AUAAAAGCGCCAGAACUACAGAAAUGUAAUCGACGAGGAGGAGUUUUAUCGAAUUUUCGGCGGAUGCCUCCAAA [G29A U31C G44U] | < 1e-05 s⁻¹ |  | < 1e-05 s⁻¹ | 
AUAAAAGCGCCAGAACUACAGAAAUGUAAUUGCCGAGCAGGAGGUUUAUCGACUUUUCGGCGGAUGCCUCCAAA [G29A A33C G38C A53C] | < 1e-05 s⁻¹ | < 1e-05 s⁻¹ | < 1e-05 s⁻¹ | 
